{
  "sequences": {"note": "Protein sequences, listed by entry. Tags and fused reporters are not part of them. Lines headed by an entry give the natural chain unless they say otherwise; changes in a name come on top. Chains listed by the source or under a name are the forms on record and can include a tag or linker.", "UniProt Q9Y2G2": "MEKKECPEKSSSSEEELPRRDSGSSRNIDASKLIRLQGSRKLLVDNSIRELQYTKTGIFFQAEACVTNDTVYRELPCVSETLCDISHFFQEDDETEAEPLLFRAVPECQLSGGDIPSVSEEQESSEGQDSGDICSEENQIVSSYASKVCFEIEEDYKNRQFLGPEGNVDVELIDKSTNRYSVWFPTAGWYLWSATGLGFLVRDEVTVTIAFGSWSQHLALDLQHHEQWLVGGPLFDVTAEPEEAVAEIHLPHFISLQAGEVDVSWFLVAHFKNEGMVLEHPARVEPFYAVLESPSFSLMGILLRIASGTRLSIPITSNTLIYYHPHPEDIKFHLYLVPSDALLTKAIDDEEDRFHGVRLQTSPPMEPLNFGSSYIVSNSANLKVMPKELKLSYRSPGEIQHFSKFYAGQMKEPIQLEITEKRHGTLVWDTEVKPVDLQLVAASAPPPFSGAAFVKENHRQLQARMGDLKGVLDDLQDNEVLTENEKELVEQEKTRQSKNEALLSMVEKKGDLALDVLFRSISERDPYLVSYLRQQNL", "UniProt Q86TI2": "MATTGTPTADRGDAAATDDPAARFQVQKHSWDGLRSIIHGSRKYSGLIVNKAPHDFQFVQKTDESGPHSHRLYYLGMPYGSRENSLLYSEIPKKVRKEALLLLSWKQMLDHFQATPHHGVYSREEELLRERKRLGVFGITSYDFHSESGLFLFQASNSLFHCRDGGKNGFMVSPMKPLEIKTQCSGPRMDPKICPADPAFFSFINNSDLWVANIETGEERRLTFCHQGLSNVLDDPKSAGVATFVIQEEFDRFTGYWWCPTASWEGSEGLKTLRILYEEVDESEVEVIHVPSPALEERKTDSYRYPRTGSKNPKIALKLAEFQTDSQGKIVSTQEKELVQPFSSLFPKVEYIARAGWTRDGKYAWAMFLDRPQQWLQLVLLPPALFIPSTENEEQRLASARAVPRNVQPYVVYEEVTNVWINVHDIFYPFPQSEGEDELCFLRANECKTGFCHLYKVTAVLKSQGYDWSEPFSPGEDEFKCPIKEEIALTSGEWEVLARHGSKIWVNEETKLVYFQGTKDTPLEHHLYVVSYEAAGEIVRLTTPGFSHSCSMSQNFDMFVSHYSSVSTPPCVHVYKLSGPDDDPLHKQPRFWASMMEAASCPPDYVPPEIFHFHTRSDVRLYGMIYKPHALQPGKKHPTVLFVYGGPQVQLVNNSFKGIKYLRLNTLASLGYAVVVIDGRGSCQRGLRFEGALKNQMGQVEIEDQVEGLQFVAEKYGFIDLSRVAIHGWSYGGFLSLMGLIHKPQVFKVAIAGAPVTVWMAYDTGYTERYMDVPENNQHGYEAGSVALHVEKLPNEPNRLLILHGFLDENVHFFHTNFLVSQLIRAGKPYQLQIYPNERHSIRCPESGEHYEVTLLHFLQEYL", "hDPP9(L131E) (non-tagged, recombinant) (Q86TI2-2, form named)": "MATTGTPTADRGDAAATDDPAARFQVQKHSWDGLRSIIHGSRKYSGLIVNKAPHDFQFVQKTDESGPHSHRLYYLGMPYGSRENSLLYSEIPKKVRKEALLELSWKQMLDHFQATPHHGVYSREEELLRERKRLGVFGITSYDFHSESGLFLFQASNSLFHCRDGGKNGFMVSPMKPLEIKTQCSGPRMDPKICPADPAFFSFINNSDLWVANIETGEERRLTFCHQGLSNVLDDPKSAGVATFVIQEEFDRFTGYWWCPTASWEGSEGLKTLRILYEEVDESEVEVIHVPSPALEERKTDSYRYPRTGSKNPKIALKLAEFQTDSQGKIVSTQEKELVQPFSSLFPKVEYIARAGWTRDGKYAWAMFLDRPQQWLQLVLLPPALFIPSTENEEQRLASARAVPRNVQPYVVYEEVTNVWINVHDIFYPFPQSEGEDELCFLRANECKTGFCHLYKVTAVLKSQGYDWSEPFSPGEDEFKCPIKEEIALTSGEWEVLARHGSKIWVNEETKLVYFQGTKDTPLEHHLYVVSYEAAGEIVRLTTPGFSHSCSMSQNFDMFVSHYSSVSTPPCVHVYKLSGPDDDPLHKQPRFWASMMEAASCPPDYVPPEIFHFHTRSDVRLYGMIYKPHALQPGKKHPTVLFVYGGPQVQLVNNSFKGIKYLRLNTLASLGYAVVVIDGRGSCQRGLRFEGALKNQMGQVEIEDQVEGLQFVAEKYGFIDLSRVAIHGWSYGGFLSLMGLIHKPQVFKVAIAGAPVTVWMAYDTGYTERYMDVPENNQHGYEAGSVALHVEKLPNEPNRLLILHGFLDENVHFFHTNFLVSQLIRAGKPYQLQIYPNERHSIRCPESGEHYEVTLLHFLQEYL", "Flag–hDPP9(L131E) (Q86TI2-2, form named)": "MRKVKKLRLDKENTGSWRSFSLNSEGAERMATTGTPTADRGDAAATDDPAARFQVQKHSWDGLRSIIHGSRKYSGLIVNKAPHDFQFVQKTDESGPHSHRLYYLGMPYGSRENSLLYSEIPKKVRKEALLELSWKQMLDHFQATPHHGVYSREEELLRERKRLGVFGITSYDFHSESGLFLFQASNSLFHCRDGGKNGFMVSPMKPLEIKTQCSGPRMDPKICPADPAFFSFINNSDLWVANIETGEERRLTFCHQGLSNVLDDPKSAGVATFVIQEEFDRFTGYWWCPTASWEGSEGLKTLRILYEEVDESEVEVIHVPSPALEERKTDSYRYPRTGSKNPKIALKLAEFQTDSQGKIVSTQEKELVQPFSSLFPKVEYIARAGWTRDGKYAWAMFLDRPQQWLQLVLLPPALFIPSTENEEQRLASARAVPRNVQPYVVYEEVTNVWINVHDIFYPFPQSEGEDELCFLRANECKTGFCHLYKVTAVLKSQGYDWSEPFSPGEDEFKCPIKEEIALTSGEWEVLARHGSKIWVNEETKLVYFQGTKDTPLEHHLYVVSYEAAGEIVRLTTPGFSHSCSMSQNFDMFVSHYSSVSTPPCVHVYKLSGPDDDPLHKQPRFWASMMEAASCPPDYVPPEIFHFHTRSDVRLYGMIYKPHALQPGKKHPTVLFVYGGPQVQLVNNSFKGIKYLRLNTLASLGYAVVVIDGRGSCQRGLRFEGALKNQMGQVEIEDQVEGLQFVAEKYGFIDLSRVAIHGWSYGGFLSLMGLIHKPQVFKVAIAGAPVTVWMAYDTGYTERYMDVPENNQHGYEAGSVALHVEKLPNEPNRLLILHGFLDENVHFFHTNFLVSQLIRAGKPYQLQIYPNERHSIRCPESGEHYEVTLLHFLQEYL", "Flag–hDPP9 (wild type) (Q86TI2-2, form named)": "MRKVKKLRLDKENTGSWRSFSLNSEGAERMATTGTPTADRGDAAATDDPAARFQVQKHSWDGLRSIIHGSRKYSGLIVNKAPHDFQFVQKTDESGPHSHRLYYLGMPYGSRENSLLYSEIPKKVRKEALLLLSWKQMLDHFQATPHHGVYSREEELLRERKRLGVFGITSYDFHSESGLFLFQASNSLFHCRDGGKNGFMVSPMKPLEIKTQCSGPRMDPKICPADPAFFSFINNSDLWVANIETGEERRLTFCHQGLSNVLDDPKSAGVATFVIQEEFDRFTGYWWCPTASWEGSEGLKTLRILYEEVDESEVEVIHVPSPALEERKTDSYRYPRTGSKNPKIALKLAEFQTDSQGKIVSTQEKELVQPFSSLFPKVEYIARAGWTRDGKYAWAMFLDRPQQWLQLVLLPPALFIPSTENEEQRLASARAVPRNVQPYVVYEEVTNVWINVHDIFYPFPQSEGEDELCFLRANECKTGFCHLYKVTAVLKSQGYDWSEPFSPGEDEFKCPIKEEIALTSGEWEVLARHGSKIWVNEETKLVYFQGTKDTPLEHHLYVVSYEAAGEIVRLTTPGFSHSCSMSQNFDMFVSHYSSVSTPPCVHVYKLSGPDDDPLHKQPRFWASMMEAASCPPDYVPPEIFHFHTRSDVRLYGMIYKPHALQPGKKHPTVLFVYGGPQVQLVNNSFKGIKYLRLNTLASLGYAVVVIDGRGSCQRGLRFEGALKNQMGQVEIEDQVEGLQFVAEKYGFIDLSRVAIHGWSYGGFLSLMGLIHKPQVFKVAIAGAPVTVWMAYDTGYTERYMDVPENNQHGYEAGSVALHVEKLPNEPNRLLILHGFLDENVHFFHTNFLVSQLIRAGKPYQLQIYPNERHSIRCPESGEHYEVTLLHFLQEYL"},
  "source": "paper PMC8081665",
  "about": "“Structural and biochemical mechanisms of NLRP1 inhibition by DPP9” (Nature, 2021)",
  "key": {"[1]": {"molecular_target": "full-length GST–CARD8 (human) (UniProt Q9Y2G2)", "assay": "pull-down; GST fusion held on GS4B resin, incubated with an excess of purified DPP9 on ice for 60 min, washed five times with 10 mM Tris pH 8.0, 100 mM NaCl, eluted with GSH; SDS–PAGE with Coomassie staining; also with or without VbP; both purified"}, "[2]": {"molecular_target": "hDPP9 (non-tagged, recombinant) (human) (UniProt Q86TI2)", "assay": "SEC; the two proteins co-expressed in insect cells, complex purified on GS4B resin, GST removed with PreScission protease, then gel filtration; fractions on SDS–PAGE with Coomassie staining; both purified"}, "[3]": {"molecular_target": "Flag–hDPP9(L131E) (human) (UniProt Q86TI2)", "assay": "co-IP; lysates of transfected 293T cells collected 48 h post transfection, anti-Flag immunoprecipitation, immunoblot"}, "[4]": {"molecular_target": "Flag–hDPP9 (wild type) (human) (UniProt Q86TI2)", "assay": "co-IP; lysates of transfected 293T cells collected 48 h post transfection, anti-Flag immunoprecipitation, immunoblot"}, "[5]": {"molecular_target": "rNLRP1 FIIND (residues 822-1122), autoprocessed (rat) (UniProt D9I2G3)", "assay": "SEC; purified rNLRP1 FIIND alone; gel-filtration profile and SDS–PAGE; both purified"}},
  "note": "Results are given in words; binding and its absence hold for the method and conditions named. For part of these data: Binding seen in cells or lysates may run through a third protein. Some results given as binding are weak or reduced against the parent protein; the word gives no strength. For part of these data: Tags and fused reporters may be left off the sequences shown.",
  "data": [
    {"molecule": "hDPP9(L131E) (non-tagged, recombinant) (from UniProt Q86TI2-2 30-892) (enzyme)", "values": [
      {"measurement": "binding", "setting": "[1]", "value": "no binding"}
    ]},
    {"molecule": "full-length CARD8 (GST removed) (from UniProt Q9Y2G2 1-537)", "values": [
      {"measurement": "binding", "setting": "[2]", "value": "binds"}
    ]},
    {"molecule": "hDPP9 (non-tagged, recombinant) (from UniProt Q86TI2-2 30-892) (enzyme)", "values": [
      {"measurement": "binding", "setting": "[1]", "value": "binds"}
    ]},
    {"molecule": "HA-tagged hNLRP1 (protein, UniProt Q9C000 1-1473) MAGGAWGRLACYLEFLKKEELKEFQLLLANKAHSRSSSGETPAQPEKTSGMEVASYLVAQYGEQRAWDLALHTWEQMGLRSLCAQAQEGAGHSPSFPYSPSEPHLGSPSQPTSTAVLMPWIHELPAGCTQGSERRVLRQLPDTSGRRWREISASLLYQALPSSPDHESPSQESPNAPTSTAVLGSWGSPPQPSLAPREQEAPGTQWPLDETSGIYYTEIREREREKSEKGRPPWAAVVGTPPQAHTSLQPHHHPWEPSVRESLCSTWPWKNEDFNQKFTQLLLLQRPHPRSQDPLVKRSWPDYVEENRGHLIEIRDLFGPGLDTQEPRIVILQGAAGIGKSTLARQVKEAWGRGQLYGDRFQHVFYFSCRELAQSKVVSLAELIGKDGTATPAPIRQILSRPERLLFILDGVDEPGWVLQEPSSELCLHWSQPQPADALLGSLLGKTILPEASFLITARTTALQNLIPSLEQARWVEVLGFSESSRKEYFYRYFTDERQAIRAFRLVKSNKELWALCLVPWVSWLACTCLMQQMKRKEKLTLTSKTTTTLCLHYLAQALQAQPLGPQLRDLCSLAAEGIWQKKTLFSPDDLRKHGLDGAIISTFLKMGILQEHPIPLSYSFIHLCFQEFFAAMSYVLEDEKGRGKHSNCIIDLEKTLEAYGIHGLFGASTTRFLLGLLSDEGEREMENIFHCRLSQGRNLMQWVPSLQLLLQPHSLESLHCLYETRNKTFLTQVMAHFEEMGMCVETDMELLVCTFCIKFSRHVKKLQLIEGRQHRSTWSPTMVVLFRWVPVTDAYWQILFSVLKVTRNLKELDLSGNSLSHSAVKSLCKTLRRPRCLLETLRLAGCGLTAEDCKDLAFGLRANQTLTELDLSFNVLTDAGAKHLCQRLRQPSCKLQRLQLVSCGLTSDCCQDLASVLSASPSLKELDLQQNNLDDVGVRLLCEGLRHPACKLIRLGLDQTTLSDEMRQELRALEQEKPQLLIFSRRKPSVMTPTEGLDTGEMSNSTSSLKRQRLGSERAASHVAQANLKLLDVSKIFPIAEIAEESSPEVVPVELLCVPSPASQGDLHTKPLGTDDDFWGPTGPVATEVVDKEKNLYRVHFPVAGSYRWPNTGLCFVMREAVTVEIEFCVWDQFLGEINPQHSWMVAGPLLDIKAEPGAVEAVHLPHFVALQGGHVDTSLFQMAHFKEEGMLLEKPARVELHHIVLENPSFSPLGVLLKMIHNALRFIPVTSVVLLYHRVHPEEVTFHLYLIPSDCSIRKAIDDLEMKFQFVRIHKPPPLTPLYMGCRYTVSGSGSGMLEILPKELELCYRSPGEDQLFSEFYVGHLGSGIRLQVKDKKDETLVWEALVKPGDLMPATTLIPPARIAVPSPLDAPQLLHFVDQYREQLIARVTSVEVVLDKLHGQVLSQEQYERVLAENTRPSQMRKLFSLSQSWDRKCKDGLYQALKETHPHLIMELWEKGSKKGLLPLSS", "values": [
      {"measurement": "binding", "setting": "[3]", "value": "no binding"},
      {"measurement": "binding", "setting": "[4]", "value": "binds"}
    ]},
    {"molecule": "rNLRP1 FIIND (residues 822-1122), autoprocessed (domain or fragment, UniProt D9I2G3 822-968; D9I2G3 969-1122) chain 1: GDKHMEPLGTDDDFWGPSGPVSTEVVDRERNLYRVRLPMAGSYHCPSTGLHFVVTRAVTIEIGFCAWSQFLHETPLQHSHMVAGPLFDIKAEHGAVTAVCLPHFVSLQEGKVDSSLFHVAHFQDHGMVLETPARVEPHFAVLENPSF chain 2: SPMGVLLRMIPAVGHFIPITSITLIYYRLYLEDITFHLYLVPNDCTIRKAIDEEELKFQFVRINKPPPVDALYVGSRYIVSSSKEVEILPKELELCYRSPRESQLFSEIYVGNIGSGINLQLTDKKYMNLIWEALLKPGDLRPALPRMASAPKD", "values": [
      {"measurement": "binding", "setting": "[5]", "value": "no binding"}
    ]}
  ]
}
